About 1,800 (2.5%) of roughly 71,000 compounds were called active. The inconclusive results got no clear call from the source; some entries with a clear call stand among them for comparison. Calls follow the shape of the dose curve; as a rule, active = well fitted activation curve with a large enough effect in the signal ratio, with a control signal flat (not every such curve was filed as active); inconclusive = small, poorly fitted or top-dose-only effect, or effect the other way, or a change in a side signal; inactive = flat fitted curve, though single readings scatter; the % refers to the signal ratio. Potencies of inconclusive entries are doubtful fits and often do not repeat.
Experiment: Cell signaling CRE-BLA (Fsk stim); as to activity change, negative = inhibition: % of control where 0% means no effect
Settings: CHO CRE-bla reporter (cAMP response element driving beta-lactamase), forskolin EC10, beta-lactamase ratio; activity change, negative = inhibition: at 38.2 µM (top of the series) unless noted
Description: NIH Molecular Libraries Screening Centers Network [MLSCN]
NIH Chemical Genomics Center [NCGC]
Assay Provider: Marshall W. Nirenberg, U.S. National heart lung & blood institute
Memories persist for different lengths of time, from seconds or minutes to a lifetime. There are two kinds of memory: short-term memory (STM) and long-term memory (LTM). STM lasts for minutes to hours, which maybe mediated by modifications of molecules involved in synaptic functions. LTM lasts for days or longer, and may be due to the formation of new synapses or restructuring of existing synapses. LTM, but not STM, requires gene transcription and synthesis of proteins. CREB (cyclic-AMP Responsive Element Binding Protein) is one of the candidates plays an important role for enhancement of some types of LTM. CREB, a family of transcription factors, regulates the transcription of genes containing cAMP Responsive Elements (CRE). CRE is a nucleotide sequence often found in the promoter regions of genes that are binding sites for CREB.
Using a beta-lactamase reporter-gene under control of cAMP responsive element, a cell-based assay [CellSensor(TM) CRE-bla CHO developed by Invitrogen Corp.] was used to measure forskolin-induced signaling. Library compounds were measured for their ability to modulate positively or negatively the action of EC10 NKH 477, a water soluble forskolin, on reporter gene activity. Compounds were screened in a titration series in 1536-well format. Positive and negative modulators were identified based on the AC50 values derived from the screening data.
NCGC Assay Protocol Summary
2000 cells/5uL in Opti-MEM medium containing 0.5% dialyzed FBS, 0.1 mM NEAA, 1 mM sodium pyruvate and 10 mM HEPES was dispensed into 1536-well plates and cells were cultured at 37 degrees Celsius overnight. […] And then the plates were incubated at 37 degrees Celsius for 3 hours. 1 uL of CCF4-dye mixture was added to each well. After incubated at room temperature for 2 hours the plates were measured on an EnVision plate reader at Excitation 405nm, Emission1=460nm and Emission 2=530nm. The %Activity was determined from the ratio of 460nm/530nm.
Keywords: NIH Roadmap, MLSCN, MLSMR, qHTS, NCGC, CRE, beta-lactamase reporter-gene assay.
In the case of `CCOC(=O)C1=C(Cn2ccc(C(F)(F)F)n2)NC(=O)NC1c1ccc2c(c1)OCO2` (stereo not drawn), the Potency is reported as “inactive”. In the case of `Cc1cc(O)c(/C=N/c2ccccn2)c(=O)o1`, the Potency is reported as “inactive”. With `Oc1c(I)cc(Cl)c2cccnc12` the Potency was inconclusive: 31.6 µM [falling, single point] and the activity change, negative = inhibition was inconclusive: -21.7% [at 17.1 µM]. With `CCC(=O)OCc1cc2cccc(C)c2[nH]c1=O` the activity change, negative = inhibition was inconclusive: -7.32%. In the case of `COc1ccc(-c2nc3cnc(OC)nc3n(Cc3ccc(F)cc3)c2=O)cc1`, the activity change, negative = inhibition is reported as inconclusive: 13.8%. For `COc1ccc(-c2nc3cnc(Oc4cccc(Cl)c4)nc3n(C[C@H]3CCCO3)c2=O)cc1`, the Potency was inconclusive: 3.16 µM [rising, partial curve]. In the case of `Cc1nc2ccc(NC(=O)N3CCOCC3)cc2s1`, the Potency is reported as “inactive”. With `CCC(C)NS(=O)(=O)c1cccs1` (stereo not drawn) the activity change, negative = inhibition was inconclusive: 4.87%. In the case of `CC(C)CCN(C)C1CCN(C(=O)Nc2c(F)cccc2F)CC1`, the Potency is reported as “inactive”. For `COc1cc(OC)c(OC)cc1CN1CCN(c2ccccc2OC)CC1`, the activity change, negative = inhibition was inconclusive: 8.39%. For `COc1ccc2nc(N3CCCC(O)C3)c(C#N)cc2c1` (stereo not drawn), the activity change, negative = inhibition was inconclusive: 23.5%. In the case of `Cc1cc(C)nc(N2CCCC(C(=O)NCCc3ccccc3F)C2)n1` (stereo not drawn), the Potency is reported as “inactive”. With `c1ccc2c(c1)oc1c(NCc3ccc4c(c3)OCO4)ncnc12` the Potency was inconclusive: 5.01 µM [falling, single point]. For `O=C(O)CCc1nc2ccccc2n(CCc2ccccc2)c1=O`, the Potency was inconclusive: 3.16 µM [rising, single point]. For `CCn1c(=O)cc(SCC(=O)Nc2ccc3c(c2)OCO3)c2ccccc21`, the Potency was inconclusive: 7.94 µM [rising, partial curve]. With `CCc1cccc(NC(=O)CN(C)S(=O)(=O)c2cccc3nsnc23)c1` the activity change, negative = inhibition was inconclusive: -25.6%. With `C=CCN1C(=O)N(/C=C/C)c2cccc3cccc1c23` the Potency was inconclusive: 10 µM [rising, single point]. In the case of `O=C(CSC1=NCCN1)Nc1ccccc1`, the activity change, negative = inhibition is reported as inactive: -1.88% [at 7.6 µM]. In the case of `CC(=O)c1ccc(N2CCN(C(=O)C3CCCN(S(=O)(=O)c4cnc[nH]4)C3)CC2)cc1` (stereo not drawn), the activity change, negative = inhibition is reported as inconclusive: 11.5%. With `CC1CCN(S(=O)(=O)c2ccc3c(c2)CCN3C(=O)CCC(=O)O)CC1` the activity change, negative = inhibition was inconclusive: 20.3%. In the case of `COc1ccc(C2C3=C(CC(C)(C)CC3=O)N(CCN3CCOCC3)C3=C2C(=O)CC(C)(C)C3)cc1`, the Potency is reported as inconclusive: 10 µM [rising, partial curve]. For `CCOC(=O)c1ccccc1NC(=O)CN(c1ccccc1OCC)S(C)(=O)=O`, the activity change, negative = inhibition was inconclusive: 8.25% [at 7.6 µM]. With `O=C(Nc1ccc(Cc2ccncc2)cc1)c1ccc(S(=O)(=O)N2CCOCC2)cc1` the activity change, negative = inhibition was inconclusive: -11.1%. In the case of `CCCCn1c(SCc2ccc(Cl)cc2)nc2c1c(=O)[nH]c(=O)n2C`, the Potency is reported as inconclusive: 7.94 µM [rising, partial curve]. With `CN(C)C(=O)c1ccc(-c2cc(NCc3cccnc3)ncn2)cc1` the Potency was “inactive”. For `N[C@H](CCCC(=O)O)C(=O)O`, the Potency was “inactive”. With `Nc1nncn1C(=O)CCCOc1ccc(Cl)cc1Cl` the activity change, negative = inhibition was inconclusive: 196%. With `Cc1ccc(NC(=O)N2CCCN(Cc3ccc(F)cc3)C2)cc1C` the Potency was inconclusive: 12.6 µM [falling, partial curve]. With `CC(=O)c1cccc(OCC(=O)c2cc(C)n(-c3cc(C)on3)c2C)c1` the activity change, negative = inhibition was inconclusive: -17.1%. With `O=C(Nc1ccc2nn(-c3ccccc3)nc2c1)c1cccnc1` the activity change, negative = inhibition was inconclusive: 12.1%. In the case of `c1ccc2[nH]c(-c3ccnc4ccccc34)nc2c1`, the Potency is reported as “inactive”. For `Cc1cc(-c2ccco2)n2c(nc3ccccc32)c1C#N`, the Potency was active: 2.51 µM. With `Cc1cccn2c(=O)c3cc(C(=O)NC(C)c4ccccc4)c(=N)n(CCCn4ccnc4)c3nc12` (stereo not drawn) the Potency was inconclusive: 12.6 µM [rising, single point]. For `O=C1c2ccccc2C(=O)c2c1ccc(C(=O)O)c2-c1ccc2ccccc2c1`, the Potency was inconclusive: 5.01 µM [rising, single point]. With `CC(=O)Nc1ccc(NC(=O)c2c(C)nc3ccccn23)cc1` the Potency was “inactive”. In the case of `CCN(CCNC(=O)CN1CCN(Cc2ccc(Cl)cc2)C1=O)c1ccccc1`, the Potency is reported as “inactive”. In the case of `O=[N+]([O-])c1ccc2ncccc2c1CCc1c([N+](=O)[O-])ccc2ncccc12`, the activity change, negative = inhibition is reported as inconclusive: 26.8% [at 7.6 µM]. With `CCCCCn1c(CN2CCN(c3cccc(Cl)c3)CC2)nc2c1c(=O)[nH]c(=O)n2C` the Potency was active: 12.6 µM. For `CCc1cc2c(cc(C(=O)O)n2C)s1`, the Potency was inconclusive: 20 µM [rising, single point]. In the case of `CC(C)(CO)NC(=O)CCCOc1ccc(Cl)cc1Cl`, the Potency is reported as “inactive”. For `O=S(=O)(Cc1ccc(Cl)cc1)N1CCCC1`, the activity change, negative = inhibition was inconclusive: -19.1%. With `Cc1cc(Nc2cccc(Cl)c2)n2ncnc2n1` the Potency was inconclusive: 12.6 µM [rising, partial curve].

Source: PubChem BioAssay AID662 (National Center for Advancing Translational Sciences (NCATS), 2007)
Potency is read from the fitted curve at half-maximal effect; tags tell the direction and shape of the fitted curve.
